Measured values taken from article PMC4336329 (PLoS ONE, 2015).
The campaign covered roughly 310,000 compounds. About 14,000 (4.5%) showed an effect of 50% or more. Effects have a minus sign here. The list shows a part of the results.

The compounds below were run against human ether-à-go-go-related gene (hERG) potassium channel (human, UniProt Q12809) (assay: primary screen, population patch clamp on CHO cells stably expressing hERG).
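Further: peak tail current of the secondary pulse compared with the same well before compound.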

Sequence of human ether-à-go-go-related gene (hERG) potassium channel (Q12809 whole entry, looked up): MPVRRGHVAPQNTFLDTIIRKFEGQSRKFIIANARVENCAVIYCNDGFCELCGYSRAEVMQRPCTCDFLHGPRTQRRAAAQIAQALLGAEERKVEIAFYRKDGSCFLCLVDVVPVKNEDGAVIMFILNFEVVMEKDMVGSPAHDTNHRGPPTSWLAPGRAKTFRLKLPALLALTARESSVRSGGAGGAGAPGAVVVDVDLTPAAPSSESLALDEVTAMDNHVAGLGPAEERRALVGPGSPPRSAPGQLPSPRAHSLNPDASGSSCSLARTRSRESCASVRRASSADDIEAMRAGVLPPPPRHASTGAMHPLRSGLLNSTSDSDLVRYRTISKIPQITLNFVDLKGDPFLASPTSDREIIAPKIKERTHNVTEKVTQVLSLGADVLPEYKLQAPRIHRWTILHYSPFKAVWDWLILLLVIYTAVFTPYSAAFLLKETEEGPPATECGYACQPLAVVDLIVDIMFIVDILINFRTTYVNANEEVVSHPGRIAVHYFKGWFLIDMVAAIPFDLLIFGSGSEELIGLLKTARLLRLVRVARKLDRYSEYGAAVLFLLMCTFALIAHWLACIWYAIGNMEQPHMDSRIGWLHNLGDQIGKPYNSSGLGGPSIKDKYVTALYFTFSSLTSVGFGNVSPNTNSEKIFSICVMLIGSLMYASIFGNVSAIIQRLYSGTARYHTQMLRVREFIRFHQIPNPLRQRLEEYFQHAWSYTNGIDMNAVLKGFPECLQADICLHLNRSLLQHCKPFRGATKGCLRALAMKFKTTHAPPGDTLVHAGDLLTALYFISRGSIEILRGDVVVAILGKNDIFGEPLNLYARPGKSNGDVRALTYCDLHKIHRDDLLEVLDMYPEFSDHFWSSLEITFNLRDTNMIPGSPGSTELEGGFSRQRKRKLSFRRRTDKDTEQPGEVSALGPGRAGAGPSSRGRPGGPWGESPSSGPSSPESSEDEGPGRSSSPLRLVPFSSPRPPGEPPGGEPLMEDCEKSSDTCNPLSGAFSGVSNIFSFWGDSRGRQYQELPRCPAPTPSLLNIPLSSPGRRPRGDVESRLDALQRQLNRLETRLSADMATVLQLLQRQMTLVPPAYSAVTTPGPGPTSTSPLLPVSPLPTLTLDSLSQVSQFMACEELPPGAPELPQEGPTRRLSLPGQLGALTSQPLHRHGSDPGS

First: C=CCn1c(CCc2ccc(OC(C)C)cc2)n[nH]c1=S
Second: CCOc1ccc(CN(C)CCc2ccccn2)cc1.O=C(O)C(=O)O
The “hERG current change (%, negative = inhibition) at 10uM” value of the first is higher: -14.2% for the first, -77.8% for the second.

Going from `Cc1nc2c(C)cccc2c2c1COC2` to `O=c1oc2c3c(nn2c2ccccc12)CCCC3`, the “hERG current change (%, negative = inhibition) at 10uM” value falls from 7.98% to 2.4%.

Going from `COC(=O)CNC(=O)CN1C(=O)N(c2ccc(Cl)cc2)C(N(O)C(=O)Nc2ccc(Cl)cc2)C1(C)C` (stereo not drawn) to `NS(=O)(=O)c1ccc(CCNC(=O)Nc2ccc(Cl)cc2)cc1`, the “hERG current change (%, negative = inhibition) at 10uM” value falls from -5.29% to -9.65%.

Going from `O=C(NC(=O)c1ccc(Cl)cc1)Nc1ccc(-c2cnco2)cc1` to `COc1ccc(C(=O)C=CNNC(=O)c2ccc(Cl)cc2)cc1`, the “hERG current change (%, negative = inhibition) at 10uM” value rises from 9.76% to 20.3%.

First: Cn1c(SCC(=O)NC2CC2)nnc1-c1ccco1
Second: Cc1ccn2c(=O)nc(SCC(=O)NC3CCCCC3)nc2c1
The “hERG current change (%, negative = inhibition) at 10uM” value of the first is higher: 9.16% for the first, 6.35% for the second.

Going from `CCn1cc(C(=O)NCCCN2CCCCCC2)c(=O)c2cc(S(=O)(=O)N3CCc4ccccc4C3)ccc21` to `O=C(CCCNC(=O)c1ccc(Cl)cc1)Nc1cccc(S(=O)(=O)N2CCCCC2)c1`, the “hERG current change (%, negative = inhibition) at 10uM” value rises from -77.7% to -20.2%.

Going from `O=C(NCCN1CCOCC1)c1ccccc1Oc1ccccc1` to `CC(C)[C@@H](COc1ccccc1)N1CCN(Cc2ccccc2)CCC1=O`, the “hERG current change (%, negative = inhibition) at 10uM” value falls from -15.7% to -29.6%.

Compared with `CCc1ccc(NC(=O)CCNS(=O)(=O)c2cccc3nonc23)cc1`, `O=C(Cc1csc(-c2ccc(F)cc2)n1)Nc1cccc(S(=O)(=O)NC2=NCCC2)c1` is lower in “hERG current change (%, negative = inhibition) at 10uM” value: -4.75% for the first, -18.1% for the second.

First: NC(=O)c1ccc(NC(=O)CN2CCOCC2)cc1
Second: CN=C1SC(CC(=O)Nc2ccc(N3CCOCC3)cc2)C(=O)N1C (stereo not drawn)
The “hERG current change (%, negative = inhibition) at 10uM” value of the first is higher: 17.9% for the first, -6.91% for the second.

First: Cl.O=S(=O)(NCCN1CCOCC1)c1ccc(F)c(Cl)c1
Second: Cc1ccc(S(=O)(=O)Nc2ccccc2F)cc1C(=O)N1CCCC1
The “hERG current change (%, negative = inhibition) at 10uM” value of the first is higher: 13.5% for the first, -18.3% for the second.

First: Cn1c(=O)c2c(ncn2CC(=O)N2CCN(c3ccc([N+](=O)[O-])cc3)CC2)n(C)c1=O
Second: CCOC(=O)CSc1nc2ccc(N3CCOCC3)cc2c(=O)n1Cc1ccccc1
The “hERG current change (%, negative = inhibition) at 10uM” value of the first is lower: -72% for the first, -20.5% for the second.

First: O=C(C1=C(O)C(=O)N(CCN2CCOCC2)C1c1cccc(Br)c1)c1cccs1 (stereo not drawn)
Second: FC(F)(F)c1ccc(CN2CCN(Cc3ccco3)CC2)cc1.O=C(O)C(=O)O
The “hERG current change (%, negative = inhibition) at 10uM” value of the first is higher: 7.7% for the first, 0.168% for the second.

First: Nc1sc2c(c1C(=O)c1ccccc1)CCCC2
Second: O=C(Nc1nc2ccccc2s1)c1ccc(N2CCCCC2)c([N+](=O)[O-])c1
The “hERG current change (%, negative = inhibition) at 10uM” value of the first is lower: -14.3% for the first, 6.67% for the second.

First: COc1ccc(C(=O)c2no[n+]([O-])c2C(=O)c2ccc(OC)cc2)cc1
Second: COCC(=O)n1nc(NCc2ccc(OC)cc2)nc1NCc1ccc(OC)cc1
The “hERG current change (%, negative = inhibition) at 10uM” value of the first is lower: -41.7% for the first, -7.87% for the second.

Going from `Cc1ccccc1-c1nc2ccccc2c(=O)n1/N=C/c1ccccc1[N+](=O)[O-]` to `Cc1ccccc1C(=O)Nc1ccc2c(C#N)c3nc4ccccc4nc3n2c1`, the “hERG current change (%, negative = inhibition) at 10uM” value rises from 10.6% to 11.9%.

Going from `Cc1ccc(/C=N/N2CCN(c3ccccn3)CC2)cc1` to `CCN1CCN(c2ncc(C(=O)N3CCCc4ccccc43)c3ccccc23)CC1`, the “hERG current change (%, negative = inhibition) at 10uM” value falls from 2.68% to -46.6%.

First: COC(=O)c1cc(NC(=O)CC2Oc3ccccc3NC2=O)cc(C(=O)OC)c1 (stereo not drawn)
Second: O=C(COC(=O)c1ccc(O)cc1)Nc1cccc(S(=O)(=O)NC2=NCCC2)c1
The “hERG current change (%, negative = inhibition) at 10uM” value of the first is lower: 16.4% for the first, 21.8% for the second.

Compared with `CNC(=O)c1nc(C)n(-c2ccc(Cl)cc2Cl)n1`, `CN(C)C(=O)On1c(-c2ccccc2)nc2ccc(Cl)cc21` is lower in “hERG current change (%, negative = inhibition) at 10uM” value: 1.69% for the first, -5.78% for the second.

First: Cc1cccc(-c2ccc3ncnc(NCc4cccs4)c3c2)c1
Second: c1cnc2c(Oc3ncnc4sccc34)cccc2c1
The “hERG current change (%, negative = inhibition) at 10uM” value of the first is lower: -8.55% for the first, -4.99% for the second.

First: Cc1ccc(CN(C(=O)c2cc(=O)c3cc(Cl)c(C)cc3o2)C2CCS(=O)(=O)C2)cc1 (stereo not drawn)
Second: CCCCN(C(=O)COc1ccc(NC(C)=O)cc1)C1CCS(=O)(=O)C1 (stereo not drawn)
The “hERG current change (%, negative = inhibition) at 10uM” value of the first is lower: -13.7% for the first, 10.7% for the second.

Going from `CCOc1ccc(C(NC(C)=O)c2ccc(OC)c(OC)c2)cc1` (stereo not drawn) to `CCc1nc2ccccc2n1Cc1ccc(OC)c(OC)c1`, the “hERG current change (%, negative = inhibition) at 10uM” value falls from 2.3% to -9.59%.

First: O=C(O)CCc1ccc(-c2ccccc2)n1NC(=O)c1ccco1
Second: O=C(Cc1ccccc1)NCc1ccc(F)cc1
The “hERG current change (%, negative = inhibition) at 10uM” value of the first is higher: 18.9% for the first, 9.14% for the second.

First: O=C(CCCc1cccs1)Nc1nc(-c2ccc(F)cc2)cs1
Second: CC1Sc2ccc(S(=O)(=O)CCC(=O)NCc3cccs3)cc2NC1=O (stereo not drawn)
The “hERG current change (%, negative = inhibition) at 10uM” value of the first is higher: 19.8% for the first, 7.94% for the second.

Going from `O=C(O)c1ccc(NCc2nc3ccccc3n2Cc2ccccc2F)cc1` to `O=C(COc1cccc(F)c1)N[C@@H](Cc1ccccc1)c1nc2ccccc2[nH]1`, the “hERG current change (%, negative = inhibition) at 10uM” value rises from 10.9% to 20.3%.

Going from `CC(=O)OCC1OC(OCc2cn(C[C@H]3CC[C@@H]([C@@H]4CC[C@H](Cn5cc(COC6OC(COC(C)=O)C(OC(C)=O)C(OC(C)=O)C6OC(C)=O)nn5)O4)O3)nn2)C(OC(C)=O)C(OC(C)=O)C1OC(C)=O` (stereo partly drawn) to `CCOC(=O)Cc1csc(SCC(=O)NC(C)C23CC4CC(CC(C4)C2)C3)n1` (stereo not drawn), the “hERG current change (%, negative = inhibition) at 10uM” value falls from 0.857% to -20.2%.

First: CC(=NCC1CCCO1)C1=C(O)CC(C)(C)CC1=O (stereo not drawn)
Second: COc1cccc(-c2noc(CCC(=O)NC3CCCCC3)n2)c1
The “hERG current change (%, negative = inhibition) at 10uM” value of the first is higher: -5.04% for the first, -6.43% for the second.

First: CCC(C(=O)OCC(=O)N1CCN(S(=O)(=O)c2ccc(C)cc2C)CC1)c1ccccc1 (stereo not drawn)
Second: O=S(=O)(c1ccccc1)N1CCN(C(=S)Nc2ccc(Br)cc2)CC1
The “hERG current change (%, negative = inhibition) at 10uM” value of the first is lower: -15.8% for the first, 12.1% for the second.

Going from `COc1ccc(NC2=NCC(=O)N2Cc2cccs2)cc1.Cl` to `Cc1ccc(OCCn2c3ccccc3n3nc(C)c(=O)nc23)cc1`, the “hERG current change (%, negative = inhibition) at 10uM” value falls from 0.619% to -2.12%.

Going from `COc1ccc(S(=O)(=O)N2CC=C(C(=O)NC3CCCC3)CC2)cc1` to `O=C(NC1CC1)c1ccc(COc2ccc(F)cc2)o1`, the “hERG current change (%, negative = inhibition) at 10uM” value falls from 1.24% to -5.67%.

First: Cc1cc(Cl)ccc1NC(=S)NC1CCCC1
Second: CCC(=O)Nc1ccc(N2CCCCC2)c(C(=O)Nc2ccccc2C)c1
The “hERG current change (%, negative = inhibition) at 10uM” value of the first is higher: 11.4% for the first, 9.82% for the second.

First: COC(=O)Cc1cc(=O)[nH]c(Nc2nc3ccccc3o2)n1
Second: COC(=O)c1c(C)nc2ccccc2c1C(=O)O
The “hERG current change (%, negative = inhibition) at 10uM” value of the first is lower: -18.7% for the first, 14% for the second.

First: CCCCNC(=O)CSc1nc2cc3c(cc2c(=O)n1CCCN(CC)CC)OCO3
Second: CCOC(=O)C1=C(CSCc2ccccc2)NC(=O)NC1c1cc(C)ccc1C (stereo not drawn)
The “hERG current change (%, negative = inhibition) at 10uM” value of the first is lower: -62.6% for the first, -3.71% for the second.

First: COCCCn1c(=S)[nH]c2c(sc3ccccc32)c1=O
Second: CCn1c2ccccc2c2nc3ccccc3nc21
The “hERG current change (%, negative = inhibition) at 10uM” value of the first is higher: 3.31% for the first, -0.354% for the second.

Going from `Cc1cc(C)n2nc(C)c(Br)c2n1` to `CC(C)n1cnc2c(Nc3ccc(F)c(Cl)c3)nc(NCCO)nc21`, the “hERG current change (%, negative = inhibition) at 10uM” value falls from 20% to -39%.

Going from `C/C(=N\O)c1c(O)cc(-c2ccccc2)n(-c2ccccc2)c1=O` to `Cc1cc(/C=C2/C(=O)NC(=O)N(C)C2=O)c(C)n1-c1ccccc1`, the “hERG current change (%, negative = inhibition) at 10uM” value rises from 8.56% to 14.6%.

First: Cc1cccc(/C=N\NC(=O)c2csnn2)c1
Second: CC(/C=N/NC(=O)c1cnccn1)=C\c1ccco1
The “hERG current change (%, negative = inhibition) at 10uM” value of the first is lower: 3.63% for the first, 6.37% for the second.

First: CCOC(=O)c1csc(NC(=O)c2ccc(N3C(=O)CCC3=O)cc2)n1
Second: Cc1csc(NC(=O)c2cccn2C)n1
The “hERG current change (%, negative = inhibition) at 10uM” value of the first is higher: 12.3% for the first, 5.66% for the second.

Compared with `Cc1ccc(S(=O)(=O)NNC(=O)C2COc3ccccc3O2)cc1C` (stereo not drawn), `Cc1ccccc1CN(C)CC(=O)Nc1c(C)cccc1C(C)C` is lower in “hERG current change (%, negative = inhibition) at 10uM” value: 15.2% for the first, 5.19% for the second.

Compared with `Cc1nn(Cc2ccccc2)c2c1C(c1ccncc1)C(C#N)=C(N)O2` (stereo not drawn), `Cc1cc2c(c(=O)o1)C(c1ccc([N+](=O)[O-])o1)C(C#N)=C(N)O2` (stereo not drawn) is lower in “hERG current change (%, negative = inhibition) at 10uM” value: -0.682% for the first, -15% for the second.

Compared with `CC12CCC(=O)N1C(C(=O)Nc1nc3ccc(S(C)(=O)=O)cc3s1)CS2` (stereo not drawn), `CN(c1ccc(F)cc1)S(=O)(=O)c1ccc(Cl)c(C(=O)NC2(C)CCS(=O)(=O)C2)c1` (stereo not drawn) is lower in “hERG current change (%, negative = inhibition) at 10uM” value: 20.4% for the first, 1.85% for the second.

First: CC1CCCC(N2CCN(S(=O)(=O)c3ccccc3)CC2)C1.O=C(O)C(=O)O (stereo not drawn)
Second: CCN(CC(=O)N1CCCC1)S(=O)(=O)c1cc(C)ccc1OC
The “hERG current change (%, negative = inhibition) at 10uM” value of the first is lower: 5.88% for the first, 19.1% for the second.

First: COc1ccc(OC)c(NC(=O)C2CC(=O)n3ncnc3N2)c1 (stereo not drawn)
Second: Cc1ccc(C(C(=O)NC(C)(C)C)N(C(=O)c2csnn2)c2cccc(F)c2)o1 (stereo not drawn)
The “hERG current change (%, negative = inhibition) at 10uM” value of the first is lower: -3.37% for the first, 7.54% for the second.

Compared with `O=C(N/N=C/c1cccc(O)c1)c1ccc(COc2ccccc2Br)cc1`, `Cc1ccccc1C(=O)NC1CCN(Cc2nnnn2Cc2ccc(F)cc2)CC1` is lower in “hERG current change (%, negative = inhibition) at 10uM” value: -9.52% for the first, -40.9% for the second.

In the case of `O=C(CNC(=O)c1ccc(OC(F)F)cc1)NCC1(N2CCOCC2)CCCCC1`, the “hERG current change (%, negative = inhibition) at 10uM” value is reported as -68.5%.
